# Assay results as given in the supplement of paper PMC8728848.
# Some of the results follow.
# B1: PX14367B-bvu-516-23-516 (Bacteroides vulgatus) (protein)
# chain: LDTIPTTYVDAGSVFGKTGDAEKVLNGGWNYLMETFNSYANPGYGAMLRANDAMGSDVVLNSKYGFRTHNEFSAIYGKGGTNTLSWLLAYRVINDCNGVLDNIDAAEGTQADRNRIKGQALALRGFLYLHLASCYSFAIDKDPDAVCAPIYTQSTDETIAAEGKPASSVSEVYAQSINDLEEALELIPETYVRDAKHKIDNEVVLGILSRACLYARQWEKAKTYSDKLLAKDNYLMTESEYKAGFNSVDNKEWIWGHAQTNDQSNASYQFHYLDTTTKGSYYYSFNVDPYFRDLFEDGDYRKEMLFWATDPGADVESAAYVWMRNSKFRFRDIENQLGDIVLMRVAEIYLINAEAKAHLNDPDAINKLNDLKTARGAKTIHTNLSQQDLLETIWLERRKELWGEGFSLIDIIRNQQTVVRNAYPEGPIDYIYTDENGQTHTLKKKTQGHRFFNFPDKSAFCPNSKYYLYRITDSEELANKNLYKDHPKLSIYTK
# Assays:
# Test in all cases: glycan array binding signal (z-score within array); higher = stronger binding
# Conditions in all cases: glycan notation: IUPAC condensed, linker removed
# [1] = biological target: Neu5Ac(a2-6)Gal(b1-3)GlcNAc(b1-3)[Gal(b1-4)GlcNAc(b1-6)]Gal(b1-4)Glc
# In short: (§1)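 Glycan array data were curated from 3228 arrays in the Consortium for Functional Glycomics database and kept only where the protein sequence was available. Glycan names were converted to IUPAC-condensed notation, and columns mapping to the same glycan were averaged. The binding signal is a within-array Z-score, averaged across arrays of the same protein sequence at different concentrations or buffers and across linkers. Negative Z-scores can be read as non-binding.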
# Neu5Ac(a2-6)Gal(b1-4)Glc = biological target: Neu5Ac(a2-6)Gal(b1-4)Glc
# In short: as §1
# [2] = biological target: Neu5Ac(a2-6)Gal(b1-4)GlcNAc
# In short: as §1
# [3] = biological target: Neu5Ac(a2-6)Gal(b1-4)GlcNAc(b1-2)Man
# In short: as §1
# [4] = biological target: Neu5Ac(a2-6)Gal(b1-4)GlcNAc(b1-2)Man(a1-3)Man(b1-4)GlcNAc(b1-4)GlcNAc
# In short: as §1
# [5] = biological target: Neu5Ac(a2-6)Gal(b1-4)GlcNAc(b1-2)Man(a1-3)[Gal(b1-4)GlcNAc(b1-2)Man(a1-6)]Man(b1-4)GlcNAc(b1-4)GlcNAc
# In short: as §1
# [6] = biological target: Neu5Ac(a2-6)Gal(b1-4)GlcNAc(b1-2)Man(a1-3)[GlcNAc(b1-2)Man(a1-6)]Man(b1-4)GlcNAc(b1-4)GlcNAc
# In short: as §1
# [7] = biological target: Neu5Ac(a2-6)Gal(b1-4)GlcNAc(b1-2)Man(a1-3)[GlcNAc(b1-4)][Neu5Ac(a2-6)Gal(b1-4)GlcNAc(b1-2)Man(a1-6)]Man(b1-4)GlcNAc(b1-4)GlcNAc
# In short: as §1
# [8] = biological target: Neu5Ac(a2-6)Gal(b1-4)GlcNAc(b1-2)Man(a1-3)[Man(a1-6)]Man(b1-4)GlcNAc(b1-4)GlcNAc
# In short: as §1
# [9] = biological target: Neu5Ac(a2-6)Gal(b1-4)GlcNAc(b1-2)Man(a1-3)[Neu5Ac(a2-3)Gal(b1-4)GlcNAc(b1-2)Man(a1-6)]Man(b1-4)GlcNAc(b1-4)GlcNAc
# In short: as §1
# [10] = biological target: Neu5Ac(a2-6)Gal(b1-4)GlcNAc(b1-2)Man(a1-3)[Neu5Ac(a2-6)Gal(b1-4)GlcNAc(b1-2)Man(a1-6)]Man(b1-4)GlcNAc(b1-4)GlcNAc
# In short: as §1
# [11] = biological target: Neu5Ac(a2-6)Gal(b1-4)GlcNAc(b1-2)Man(a1-3)[Neu5Ac(a2-6)Gal(b1-4)GlcNAc(b1-2)Man(a1-6)]Man(b1-4)GlcNAc(b1-4)[Fuc(a1-6)]GlcNAc
# In short: as §1
# [12] = biological target: Neu5Ac(a2-6)Gal(b1-4)GlcNAc(b1-2)Man(a1-6)Man(b1-4)GlcNAc(b1-4)GlcNAc
# In short: as §1
# [13] = biological target: Neu5Ac(a2-6)Gal(b1-4)GlcNAc(b1-2)Man(a1-6)[Gal(b1-4)GlcNAc(b1-2)Man(a1-3)]Man(b1-4)GlcNAc(b1-4)GlcNAc
# In short: as §1
# [14] = biological target: Neu5Ac(a2-6)Gal(b1-4)GlcNAc(b1-2)Man(a1-6)[GlcNAc(b1-2)Man(a1-3)]Man(b1-4)GlcNAc(b1-4)GlcNAc
# In short: as §1
# [15] = biological target: Neu5Ac(a2-6)Gal(b1-4)GlcNAc(b1-2)Man(a1-6)[Man(a1-3)]Man(b1-4)GlcNAc(b1-4)GlcNAc
# In short: as §1
# [16] = biological target: Neu5Ac(a2-6)Gal(b1-4)GlcNAc(b1-2)[Neu5Ac(a2-6)Gal(b1-4)GlcNAc(b1-4)]Man(a1-3)[GlcNAc(b1-4)][Neu5Ac(a2-6)Gal(b1-4)GlcNAc(b1-2)[Neu5Ac(a2-6)Gal(b1-4)GlcNAc(b1-6)]Man(a1-6)]Man(b1-4)GlcNAc(b1-4)GlcNAc
# In short: as §1
# [17] = biological target: Neu5Ac(a2-6)Gal(b1-4)GlcNAc(b1-2)[Neu5Ac(a2-6)Gal(b1-4)GlcNAc(b1-4)]Man(a1-3)[GlcNAc(b1-4)][Neu5Ac(a2-6)Gal(b1-4)GlcNAc(b1-4)Man(a1-6)]Man(b1-4)GlcNAc(b1-4)GlcNAc
# In short: as §1
# [18] = biological target: Neu5Ac(a2-6)Gal(b1-4)GlcNAc(b1-2)[Neu5Ac(a2-6)Gal(b1-4)GlcNAc(b1-6)]Man(a1-6)[Neu5Ac(a2-6)Gal(b1-4)GlcNAc(b1-2)Man(a1-3)][GlcNAc(b1-4)]Man(b1-4)GlcNAc(b1-4)GlcNAc
# In short: as §1
# [19] = biological target: Neu5Ac(a2-6)Gal(b1-4)GlcNAc(b1-3)Gal(b1-3)GlcNAc
# In short: as §1
# [20] = biological target: Neu5Ac(a2-6)Gal(b1-4)GlcNAc(b1-3)Gal(b1-4)GlcNAc
# In short: as §1
# [21] = biological target: Neu5Ac(a2-6)Gal(b1-4)GlcNAc(b1-3)Gal(b1-4)GlcNAc(b1-2)Man(a1-3)[Neu5Ac(a2-6)Gal(b1-4)GlcNAc(b1-3)Gal(b1-4)GlcNAc(b1-2)Man(a1-6)]GalNAc
# In short: as §1
# [22] = biological target: Neu5Ac(a2-6)Gal(b1-4)GlcNAc(b1-3)Gal(b1-4)GlcNAc(b1-3)Gal(b1-4)GlcNAc
# In short: as §1
# [23] = biological target: Neu5Ac(a2-6)Gal(b1-4)GlcNAc(b1-3)Gal(b1-4)GlcNAc(b1-3)Gal(b1-4)GlcNAc(b1-2)Man(a1-3)[Neu5Ac(a2-6)Gal(b1-4)GlcNAc(b1-3)Gal(b1-4)GlcNAc(b1-3)Gal(b1-4)GlcNAc(b1-2)Man(a1-6)]GalNAc
# In short: as §1
# [24] = biological target: Neu5Ac(a2-6)Gal(b1-4)GlcNAc(b1-3)Gal(b1-4)GlcNAc(b1-3)GalNAc
# In short: as §1
# [25] = biological target: Neu5Ac(a2-6)Gal(b1-4)GlcNAc(b1-3)Gal(b1-4)GlcNAc(b1-3)[Neu5Ac(a2-6)Gal(b1-4)GlcNAc(b1-3)Gal(b1-4)GlcNAc(b1-6)]GalNAc
# In short: as §1
# [26] = biological target: Neu5Ac(a2-6)Gal(b1-4)GlcNAc(b1-3)Gal(b1-4)GlcNAc(b1-6)[Gal(b1-3)]GalNAc
# In short: as §1
# [27] = biological target: Neu5Ac(a2-6)Gal(b1-4)GlcNAc(b1-3)Gal(b1-4)[Fuc(a1-3)]GlcNAc(b1-3)Gal(b1-4)[Fuc(a1-3)]GlcNAc
# In short: as §1
# [28] = biological target: Neu5Ac(a2-6)Gal(b1-4)GlcNAc(b1-3)GalNAc
# In short: as §1
# [29] = biological target: Neu5Ac(a2-6)Gal(b1-4)GlcNAc(b1-3)[Neu5Ac(a2-6)Gal(b1-4)GlcNAc(b1-6)]GalNAc
# In short: as §1
# [30] = biological target: Neu5Ac(a2-6)Gal(b1-4)GlcNAc(b1-6)GalNAc
# In short: as §1
# [31] = biological target: Neu5Ac(a2-6)Gal(b1-4)GlcNAc(b1-6)[Gal(b1-3)GlcNAc(b1-3)]Gal(b1-4)Glc
# In short: as §1
# [32] = biological target: Neu5Ac(a2-6)Gal(b1-4)GlcNAc(b1-6)[Gal(b1-3)]GalNAc
# In short: as §1
# [33] = biological target: Neu5Ac(a2-6)Gal(b1-4)GlcNAc6S
# In short: as §1
# Neu5Ac(a2-6)GalNAc = biological target: Neu5Ac(a2-6)GalNAc
# In short: as §1
# [34] = biological target: Neu5Ac(a2-6)GalNAc(b1-4)GlcNAc
# In short: as §1
# [35] = biological target: Neu5Ac(a2-6)GalNAc(b1-4)GlcNAc6S
# In short: as §1
# [36] = biological target: Neu5Ac(a2-6)GlcNAc(b1-4)GlcNAc
# In short: as §1
binder,measurement,setting,value
B1,glycan array binding signal (z-score),[1],-0.335
same,glycan array binding signal (z-score),Neu5Ac(a2-6)Gal(b1-4)Glc,-0.068
same,glycan array binding signal (z-score),[2],-0.274
same,glycan array binding signal (z-score),[3],-0.355
same,glycan array binding signal (z-score),[4],-0.286
same,glycan array binding signal (z-score),[5],-0.151
same,glycan array binding signal (z-score),[6],0.838
same,glycan array binding signal (z-score),[7],-0.072
same,glycan array binding signal (z-score),[8],-0.058
same,glycan array binding signal (z-score),[9],-0.304
same,glycan array binding signal (z-score),[10],-0.224
same,glycan array binding signal (z-score),[11],-0.238
same,glycan array binding signal (z-score),[12],-0.321
same,glycan array binding signal (z-score),[13],-0.404
same,glycan array binding signal (z-score),[14],-0.35
same,glycan array binding signal (z-score),[15],4.55
same,glycan array binding signal (z-score),[16],-0.166
same,glycan array binding signal (z-score),[17],-0.246
same,glycan array binding signal (z-score),[18],3.76
same,glycan array binding signal (z-score),[19],-0.255
same,glycan array binding signal (z-score),[20],-0.21
same,glycan array binding signal (z-score),[21],0.021
same,glycan array binding signal (z-score),[22],-0.33
same,glycan array binding signal (z-score),[23],0.119
same,glycan array binding signal (z-score),[24],-0.19
same,glycan array binding signal (z-score),[25],-0.043
same,glycan array binding signal (z-score),[26],0.683
same,glycan array binding signal (z-score),[27],0.385
same,glycan array binding signal (z-score),[28],-0.386
same,glycan array binding signal (z-score),[29],0.372
same,glycan array binding signal (z-score),[30],-0.262
same,glycan array binding signal (z-score),[31],-0.158
same,glycan array binding signal (z-score),[32],-0.186
same,glycan array binding signal (z-score),[33],-0.281
same,glycan array binding signal (z-score),Neu5Ac(a2-6)GalNAc,-0.324
same,glycan array binding signal (z-score),[34],-0.363
same,glycan array binding signal (z-score),[35],-0.208
same,glycan array binding signal (z-score),[36],-0.283
